Laboratory results taken from PubChem BioAssay AID894 (National Center for Advancing Translational Sciences (NCATS), 2007).
The whole screen tested about 150,000 compounds, of which about 6,500 (4.3%) were called active. The inconclusive results got no clear call from the source; some entries with a clear call stand among them for comparison. Calls follow the shape of the dose curve; as a rule, active = well fitted inhibition curve with a large enough effect (not every such curve was filed as active); inconclusive = small, poorly fitted or top-dose-only effect, or another doubt; inactive = no such curve, though single readings can be large or run the other way. No potency is given beside an inconclusive call; the fits are too rough.

biological target: 15-hydroxyprostaglandin dehydrogenase [NAD(+)] (Homo sapiens) (UniProt P15428); experiment: qHTS Assay for Inhibitors of HPGD (15-Hydroxyprostaglandin Dehydrogenase); conditions: purified HPGD, NADH fluorescence kinetic, PGE2 substrate; activity change, negative = inhibition: active compounds read low
Method in brief: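 20 nM HPGD preincubated 15 min at room temperature with compound in 50 mM Tris-HCl pH 8, 0.01% Tween 20. Started with 1 mM NAD+ and 30 uM prostaglandin E2; NADH fluorescence (360/450 nm) read 5 times over 30-s intervals, last minus first.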
% is scaled to controls: 0 for no effect and ±100 for the full control effect; potency is read from the fitted curve at half-maximal effect; tags tell the direction and shape of the fitted curve.

Sequence of UniProt P15428 (P15428 whole entry, looked up): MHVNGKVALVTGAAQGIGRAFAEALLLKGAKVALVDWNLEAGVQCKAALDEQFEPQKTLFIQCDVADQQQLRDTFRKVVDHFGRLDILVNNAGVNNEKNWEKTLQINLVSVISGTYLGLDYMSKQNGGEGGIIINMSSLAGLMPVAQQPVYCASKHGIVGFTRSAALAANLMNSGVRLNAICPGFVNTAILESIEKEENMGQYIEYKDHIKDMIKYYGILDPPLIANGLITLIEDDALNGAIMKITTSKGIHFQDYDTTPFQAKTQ

| SMILES | activity change, negative = inhibition | Potency |
| --- | --- | --- |
| O=C(CN1CCN(c2ccccc2)CC1)N1CCc2[nH]c3ccccc3c2C1 | inactive: -3.67% | – |
| O=C(NCc1ccc(N2CCCC2=O)cc1)Nc1ccccc1 | inactive: -21.8% | – |
| CC1=CC(C)(C)Nc2ccc(OS(=O)(=O)c3ccc(C)cc3)cc21 | – | inconclusive [inhibitor, partial curve] |
| COc1ccc(C)cc1N(CC(N)=O)S(=O)(=O)c1ccc(C)cc1 | – | inconclusive [inhibitor, partial curve, poor fit] |
| Cc1ccc(C(C)C)c(OCc2ccc(-c3nnco3)cc2)c1 | – | active: 10 µM |
| O=C(COC(=O)c1cc(-c2cccs2)nc2ccccc12)NCc1ccco1 | – | inconclusive [inhibitor, partial curve] |
| Cn1c(=O)c(C(=S)NC(=O)C2CC2)c(N)n(Cc2ccccc2)c1=O | – | inconclusive [inhibitor, partial curve] |
| CC(=O)NN1C(=O)/C(=C/c2ccc(Br)o2)SC1=S | – | inconclusive [inhibitor, partial curve] |
| O=[N+]([O-])c1cccc(/C=N/n2c(C3CCCCC3)n[nH]c2=S)c1 | – | active: 2.51 µM |
| O=C(C1CC(c2ccc(F)cc2)=NO1)N1CCc2ccccc2C1 (stereo not drawn) | – | active: 20 µM |
| CC1=Nn2c(nc3sc4c(c3c2=O)CCCC4)SC1 | – | inconclusive [inhibitor, partial curve] |
| O=C(N/N=C/c1ccco1)c1cc(-c2cccc(Br)c2)nc2ccccc12 | – | inconclusive [inhibitor, single point] |
| CN(C)c1ccc(NC(=S)c2ccccn2)cc1 | – | active: 25.1 µM |
| CCc1ccc(CNC(=O)c2cc3c(C)nc4ccccc4c3o2)cc1 | – | inconclusive [inhibitor, single point] |
| COc1ccc(CC(=O)Nc2cc3oc4ccccc4c3cc2OC)cc1 | – | inconclusive [inhibitor, partial curve] |
| Cc1cc(O)c(C(C)C)cc1NC(=O)Cn1nc(C)c2ccccc2c1=O | – | inconclusive [inhibitor, partial curve] |
| O=C(CC(=O)N/N=C/c1ccccc1O)NCc1cccnc1 | – | inconclusive [inhibitor, partial curve] |
| CSc1nc(-c2ccco2)nn1C(=O)c1ccc(Cl)cc1 | – | inconclusive [inhibitor, partial curve] |
| O=C1NCCCC2c3cc(O)c4ccccc4c3OC12N1CCCCC1 (stereo not drawn) | inactive: -11% | – |
| COc1ccc(Nc2oc(COc3cccc(C)c3)nc2C#N)cc1 | – | inconclusive [inhibitor, partial curve] |
| Cc1ccc(N/N=C/c2cccnc2)cc1 | inactive: -13.4% | – |
| COC(=O)/C(C#N)=C/c1ccc(OC(=O)c2ccccn2)cc1 | inconclusive: -30.9% [inhibitor] | – |
| Cc1cc(C)n(S(=O)(=O)c2cccc(Cl)c2Cl)n1 | inactive: -7.16% | – |
| O=C(CSc1nc2c(c(C(F)(F)F)n1)CCc1ccccc1-2)NCc1ccco1 | – | inconclusive [inhibitor, partial curve] |
| O=C(NCc1cccs1)C1CC(c2ccccc2O)=NO1 (stereo not drawn) | – | inconclusive [inhibitor, partial curve] |

| SMILES | activity change, negative = inhibition | Potency |
| --- | --- | --- |
| CC1(C)Cc2c(sc3nc(-c4ccccc4)oc(=O)c23)CO1 | – | inconclusive [inhibitor, single point] |
| NC(=O)c1ccccc1NC(=O)CCc1ccccc1 | inactive: -16.8% | – |
| CN(Cc1cccs1)c1ncnc2sccc12 | – | inconclusive [inhibitor, partial curve] |
| COC(=O)C1=CN(c2ccc(OC)cc2)C=C(C(=O)OC)C1c1ccc(C)c([N+](=O)[O-])c1 | inactive: -1.75% | – |
| CCCc1cc(=O)[nH]c(SCc2cccc(C)c2)n1 | – | active: 14.1 µM |
| CC(C)c1nc(N2CCOCC2)c(C#N)c2c1CCC2 | – | inconclusive [inhibitor, partial curve] |
| CC1CCN(C(=O)c2ccc(CSc3nc4ccncc4n3Cc3ccc(F)cc3)cc2)CC1 | – | active: 0.794 µM |
| Cc1nc(Sc2nnnn2C)c2c3c(sc2n1)CCC3 | – | inconclusive [inhibitor, partial curve] |
| Cn1c(=O)c2c(nc(SCC(=O)N3CCCCCC3)n2C)n(C)c1=O | inactive: -7.4% | – |
| CC(C)Cn1c2c(c(O)c(C(=O)Nc3nccs3)c1=O)CCCC2 | inactive: -4.79% | – |
| O=C(Nc1cc(C(=O)N2CCCC2)ccc1N1CCCC1)c1ccccc1F | – | inconclusive [inhibitor, single point] |
| Cc1nc(N2CCN(Cc3ccc4c(c3)OCO4)CC2)nc2c1C(=O)CC(c1ccco1)C2 (stereo not drawn) | inactive: -15.9% | – |
| COc1ccc(/C=N/NC(=O)c2sccc2OCc2ccc(F)cc2)cc1OC | – | inconclusive [inhibitor, single point] |
| CCc1cc(C(=O)NNC(=S)Nc2ccccc2C)cs1 | inactive: -16.5% | – |
| Cc1ccc(C)c(Nc2nc3c(S(=O)(=O)c4ccccc4)nnn3c3ccccc23)c1 | – | inconclusive [inhibitor, partial curve] |
| Cc1cc(C)c(NC(=O)NC2CCCCC2)c(C)c1 | inactive: -7.56% | – |
| O=C(O)CN1C(=O)c2cccc3cccc(c23)C1=O | – | inconclusive [inhibitor, partial curve] |
| CCCc1cc(=O)oc2cc(C)cc(OCC(=O)O)c12 | – | inconclusive [inhibitor, partial curve] |
| COc1ccc2c(c1)c1nc(SCC(C)C)n(CCO)c(=O)c1n2C | – | inconclusive [inhibitor, single point] |
| O=C(NCCc1ccncc1)Nc1ccccc1 | inactive: -14.7% | – |
| COc1ccc(-c2cc(NCc3ccccn3)n3ncnc3n2)cc1 | – | inconclusive [inhibitor, partial curve] |
| COc1ccccc1-c1nc(C#N)c(N2CCC(Cc3ccccc3)CC2)o1 | – | inconclusive [inhibitor, partial curve] |
| Cc1ccc(NC(=O)CSc2nnc(-c3cnccn3)n2-c2ccccc2)cc1 | inactive: -13.1% | – |
| CCCn1c(N2CCN(CC(=O)c3c(C)n(C)c4ccccc34)CC2)nc2c1c(=O)[nH]c(=O)n2C | inactive: -3.25% | – |
| COc1cc(/C=C/C(=O)NC(C)C)ccc1OCc1ccccc1 | – | inconclusive [inhibitor, partial curve] |

| SMILES | activity change, negative = inhibition | Potency |
| --- | --- | --- |
| COc1cc(C(c2c(C)[nH][nH]c2=O)c2c(C)[nH][nH]c2=O)ccc1OS(=O)(=O)c1ccc(C)cc1 | inactive: -5.31% | – |
| Cc1ccc(-n2nnnc2-c2cnc3cc4c(cc3c2C)OCO4)cc1 | – | inconclusive [inhibitor, single point] |
| Cc1cccc(Nc2nnc(SC/C(O)=C(\C#N)c3nc4ccccc4[nH]3)s2)c1 | – | inconclusive [inhibitor, partial curve] |
| Cc1ccc(CN/C=C/C(=O)c2ccc(Br)cc2)cc1 | – | inconclusive [inhibitor, partial curve] |
| CSC(=NNC(=O)c1ccc(O)cc1)SC | – | active: 15.8 µM |
| COc1ccc(NC(=O)CCNC(C)=O)cc1NS(=O)(=O)c1ccc(F)cc1 | inactive: -18% | – |
| O=C1OCCN1C(=O)[C@H]1[C@H](c2ccc(F)cc2)C(c2ccccc2)=NN1c1ccccc1 | – | inconclusive [inhibitor, partial curve] |
| COc1ccc(S(=O)(=O)N2CCOCC2)cc1NC(=O)Cc1ccc(Cl)c(Cl)c1 | inactive: -11% | – |
| O=C(NCCc1ccccn1)c1cc(-c2ccc(Cl)cc2)nc2ccccc12 | – | inconclusive [inhibitor, single point] |
| C#CCOC(=O)C(NC(=O)c1ccccc1)=C1CCCCC1 | inactive: -0.876% | – |
| CCCC(=O)Nc1c(-c2ccc(OC)cc2)c(=O)c2ccccc2n1C | – | inconclusive [inhibitor, partial curve] |
| COc1ccc(C2=NN(C(=O)/C=C/c3ccccc3)C(c3ccccc3)C2)c(OC(C)=O)c1 (stereo not drawn) | – | inconclusive [inhibitor, partial curve] |
| COc1ccc2c(CN(C)c3ccccc3)cc(=O)oc2c1 | – | inconclusive [inhibitor, partial curve] |
| CC1(C)Cc2c(cnn2-c2ccccc2)C(=O)/C1=N\NC(=O)c1ccccc1O | – | inconclusive [inhibitor, partial curve] |
| C[C@@H]1C[C@H](OC(=O)[C@@H](O)c2ccccc2)CC(C)(C)N1C | inactive: -7.82% | – |
| CN(C)CCNC(=O)c1ccc(COCC(F)(F)F)cc1 | inactive: -8.25% | – |
| Cc1csc(NC(=O)c2cc3c(s2)CCCCC3)n1 | – | active: 25.1 µM |
| CC(=O)c1c(CC(=O)O)[nH]n(-c2nc3ccccc3s2)c1=O | – | inconclusive [inhibitor, partial curve] |
| COc1ccc(/C=C(\C#N)C(N)=O)cc1OC | inactive: -4.22% | – |
| O=C(N/N=C/c1ccc2c(c1)OCO2)C(O)c1ccccc1 (stereo not drawn) | – | inconclusive [inhibitor, partial curve] |
| COC(=O)C(CC(=O)c1ccc(Br)cc1)n1ccnc1 (stereo not drawn) | – | active: 2.51 µM |
| CCCCCCCCCC(=O)O[C@H](CC(=O)O)C[N+](C)(C)C | inactive: -4.56% | – |
| CCc1c(C)sc(NC(=O)c2cccs2)c1C#N | – | inconclusive [inhibitor, single point] |
